Reference: PMC12820563
The other results are listed elsewhere or left out. The list includes weakly bound sequences.

Target: T1, MBP-FoxP3dN (UniProt Q99JB6)
T1 sequence: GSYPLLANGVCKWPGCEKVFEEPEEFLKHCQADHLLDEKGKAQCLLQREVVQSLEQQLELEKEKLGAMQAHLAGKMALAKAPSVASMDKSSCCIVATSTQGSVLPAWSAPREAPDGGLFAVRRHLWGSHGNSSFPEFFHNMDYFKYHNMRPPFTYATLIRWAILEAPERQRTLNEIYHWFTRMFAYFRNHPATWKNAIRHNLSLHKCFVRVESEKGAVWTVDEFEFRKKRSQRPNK
Experiment: PD-seq (MBP pull-down with sequencing)
Details: 20 mM Tris-HCl pH 7.5, 100 mM NaCl, 1.5 mM MgCl2, 0.4 uM protein, 0.1 uM dsDNA library, 30 min, room temperature, amylose pull-down; high values mean tight binding; double strand, one strand shown

Row | Sequence | binding signal (RPM ratio (pull-down/input))
1 | GATGATTGTTCTCCCAGCTGATGAATTATTCAACTCGAGTAAACAAATTTTCCTAATCTTTCTGTTCAAGCGCCATCTAC | 0.381
2 | GATGATTGTTCTCCCAGCTGATGAATTACAGCTTTCGAGTAAACAAATTTTCCTAATCTTTCTGTTCAAGCGCCATCTAC | 0.989
3 | GATGATTGTTCTCCCAGCTGATGAATTATCATGATCGAGTAAACAAATTTTCCTAATCTTTCTGTTCAAGCGCCATCTAC | 0.375
4 | GATGATTGTTCTCCCAGCTGATGAATTCCCTATTTCGAGTAAACAAATTTTCCTAATCTTTCTGTTCAAGCGCCATCTAC | 0.333
5 | GATGATTGTTCTCCCAGCTGATGAATTTAAGGCGTCGAGTAAACAAATTTTCCTAATCTTTCTGTTCAAGCGCCATCTAC | 0.571
6 | GATGATTGTTCTCCCAGCTGATGAATTTAACCTCTCGAGTAAACAAATTTTCCTAATCTTTCTGTTCAAGCGCCATCTAC | 0.418
7 | GATGATTGTTCTCCCAGCTGATGAATTAAATGATTCGAGTAAACAAATTTTCCTAATCTTTCTGTTCAAGCGCCATCTAC | 0.636
8 | GATGATTGTTCTCCCAGCTGATGAATTTTTTAGGTCGAGTAAACAAATTTTCCTAATCTTTCTGTTCAAGCGCCATCTAC | 0.197
9 | GATGATTGTTCTCCCAGCTGATGAATTTCAATCGTCGAGTAAACAAATTTTCCTAATCTTTCTGTTCAAGCGCCATCTAC | 0.415
10 | GATGATTGTTCTCCCAGCTGATGAATTGTAGAACTCGAGTAAACAAATTTTCCTAATCTTTCTGTTCAAGCGCCATCTAC | 0.291
11 | GATGATTGTTCTCCCAGCTGATGAATTAGATCACTCGAGTAAACAAATTTTCCTAATCTTTCTGTTCAAGCGCCATCTAC | 0.483
12 | GATGATTGTTCTCCCAGCTGATGAATTGGATGGCTCGAGTAAACAAATTTTCCTAATCTTTCTGTTCAAGCGCCATCTAC | 0.46
13 | GATGATTGTTCTCCCAGCTGATGAATTACGCAGGTCGAGTAAACAAATTTTCCTAATCTTTCTGTTCAAGCGCCATCTAC | 0.804
14 | GATGATTGTTCTCCCAGCTGATGAATTCTCCAGCTCGAGTAAACAAATTTTCCTAATCTTTCTGTTCAAGCGCCATCTAC | 0.232
15 | GATGATTGTTCTCCCAGCTGATGAATTTGATGAGTCGAGTAAACAAATTTTCCTAATCTTTCTGTTCAAGCGCCATCTAC | 0.974
16 | GATGATTGTTCTCCCAGCTGATGAATTCCCCACTTCGAGTAAACAAATTTTCCTAATCTTTCTGTTCAAGCGCCATCTAC | 0.251
17 | GATGATTGTTCTCCCAGCTGATGAATTAGGATTGTCGAGTAAACAAATTTTCCTAATCTTTCTGTTCAAGCGCCATCTAC | 1.04
18 | GATGATTGTTCTCCCAGCTGATGAATTCACCCCATCGAGTAAACAAATTTTCCTAATCTTTCTGTTCAAGCGCCATCTAC | 0.364
19 | GATGATTGTTCTCCCAGCTGATGAATTCGGGCTATCGAGTAAACAAATTTTCCTAATCTTTCTGTTCAAGCGCCATCTAC | 0.511
20 | GATGATTGTTCTCCCAGCTGATGAATTTTTCTCTTCGAGTAAACAAATTTTCCTAATCTTTCTGTTCAAGCGCCATCTAC | 0.211
21 | GATGATTGTTCTCCCAGCTGATGAATTTTTGCATTCGAGTAAACAAATTTTCCTAATCTTTCTGTTCAAGCGCCATCTAC | 6.58

Row | Sequence | binding signal (RPM ratio (pull-down/input))
22 | GATGATTGTTCTCCCAGCTGATGAATTTCCGGACTCGAGTAAACAAATTTTCCTAATCTTTCTGTTCAAGCGCCATCTAC | 0.182
23 | GATGATTGTTCTCCCAGCTGATGAATTCTAGCAGTCGAGTAAACAAATTTTCCTAATCTTTCTGTTCAAGCGCCATCTAC | 0.398
24 | GATGATTGTTCTCCCAGCTGATGAATTGCTTACCTCGAGTAAACAAATTTTCCTAATCTTTCTGTTCAAGCGCCATCTAC | 2.08
25 | GATGATTGTTCTCCCAGCTGATGAATTAAGACGATCGAGTAAACAAATTTTCCTAATCTTTCTGTTCAAGCGCCATCTAC | 0.207
26 | GATGATTGTTCTCCCAGCTGATGAATTCAGATGCTCGAGTAAACAAATTTTCCTAATCTTTCTGTTCAAGCGCCATCTAC | 0.894
27 | GATGATTGTTCTCCCAGCTGATGAATTATTTAGCTCGAGTAAACAAATTTTCCTAATCTTTCTGTTCAAGCGCCATCTAC | 0.932
28 | GATGATTGTTCTCCCAGCTGATGAATTAATTGCTTCGAGTAAACAAATTTTCCTAATCTTTCTGTTCAAGCGCCATCTAC | 1.38
29 | GATGATTGTTCTCCCAGCTGATGAATTTGGGGCTTCGAGTAAACAAATTTTCCTAATCTTTCTGTTCAAGCGCCATCTAC | 0.471
30 | GATGATTGTTCTCCCAGCTGATGAATTCCGAATGTCGAGTAAACAAATTTTCCTAATCTTTCTGTTCAAGCGCCATCTAC | 0.75
31 | GATGATTGTTCTCCCAGCTGATGAATTGGTACAGTCGAGTAAACAAATTTTCCTAATCTTTCTGTTCAAGCGCCATCTAC | 0.431
32 | GATGATTGTTCTCCCAGCTGATGAATTGTAAGCATCGAGTAAACAAATTTTCCTAATCTTTCTGTTCAAGCGCCATCTAC | 1.68
33 | GATGATTGTTCTCCCAGCTGATGAATTGACATCTTCGAGTAAACAAATTTTCCTAATCTTTCTGTTCAAGCGCCATCTAC | 0.613
34 | GATGATTGTTCTCCCAGCTGATGAATTGTACAGCTCGAGTAAACAAATTTTCCTAATCTTTCTGTTCAAGCGCCATCTAC | 0.375
35 | GATGATTGTTCTCCCAGCTGATGAATTTTTAGGGTCGAGTAAACAAATTTTCCTAATCTTTCTGTTCAAGCGCCATCTAC | 0.192
36 | GATGATTGTTCTCCCAGCTGATGAATTCAGGTCTTCGAGTAAACAAATTTTCCTAATCTTTCTGTTCAAGCGCCATCTAC | 0.457
37 | GATGATTGTTCTCCCAGCTGATGAATTCCGATGCTCGAGTAAACAAATTTTCCTAATCTTTCTGTTCAAGCGCCATCTAC | 0.797
38 | GATGATTGTTCTCCCAGCTGATGAATTAGCCAGTTCGAGTAAACAAATTTTCCTAATCTTTCTGTTCAAGCGCCATCTAC | 0.285
39 | GATGATTGTTCTCCCAGCTGATGAATTGGTCCTATCGAGTAAACAAATTTTCCTAATCTTTCTGTTCAAGCGCCATCTAC | 0.443
40 | GATGATTGTTCTCCCAGCTGATGAATTCAGCTCTTCGAGTAAACAAATTTTCCTAATCTTTCTGTTCAAGCGCCATCTAC | 0.427
41 | GATGATTGTTCTCCCAGCTGATGAATTCCTCAAATCGAGTAAACAAATTTTCCTAATCTTTCTGTTCAAGCGCCATCTAC | 0.229
42 | GATGATTGTTCTCCCAGCTGATGAATTGACCGCTTCGAGTAAACAAATTTTCCTAATCTTTCTGTTCAAGCGCCATCTAC | 0.355

Row | Sequence | binding signal (RPM ratio (pull-down/input))
43 | GATGATTGTTCTCCCAGCTGATGAATTGTCCGCGTCGAGTAAACAAATTTTCCTAATCTTTCTGTTCAAGCGCCATCTAC | 0.455
44 | GATGATTGTTCTCCCAGCTGATGAATTTACATATTCGAGTAAACAAATTTTCCTAATCTTTCTGTTCAAGCGCCATCTAC | 0.801
45 | GATGATTGTTCTCCCAGCTGATGAATTCATTTAGTCGAGTAAACAAATTTTCCTAATCTTTCTGTTCAAGCGCCATCTAC | 1.44
46 | GATGATTGTTCTCCCAGCTGATGAATTTTATACCTCGAGTAAACAAATTTTCCTAATCTTTCTGTTCAAGCGCCATCTAC | 0.471
47 | GATGATTGTTCTCCCAGCTGATGAATTGGAAGATTCGAGTAAACAAATTTTCCTAATCTTTCTGTTCAAGCGCCATCTAC | 0.253
48 | GATGATTGTTCTCCCAGCTGATGAATTCCGCACCTCGAGTAAACAAATTTTCCTAATCTTTCTGTTCAAGCGCCATCTAC | 1.64
49 | GATGATTGTTCTCCCAGCTGATGAATTGGGTGACTCGAGTAAACAAATTTTCCTAATCTTTCTGTTCAAGCGCCATCTAC | 0.749
50 | GATGATTGTTCTCCCAGCTGATGAATTTGGGGCCTCGAGTAAACAAATTTTCCTAATCTTTCTGTTCAAGCGCCATCTAC | 0.606
51 | GATGATTGTTCTCCCAGCTGATGAATTAGGGGGCTCGAGTAAACAAATTTTCCTAATCTTTCTGTTCAAGCGCCATCTAC | 0.431
52 | GATGATTGTTCTCCCAGCTGATGAATTGCTTGAATCGAGTAAACAAATTTTCCTAATCTTTCTGTTCAAGCGCCATCTAC | 0.482
53 | GATGATTGTTCTCCCAGCTGATGAATTCCGGGCTTCGAGTAAACAAATTTTCCTAATCTTTCTGTTCAAGCGCCATCTAC | 0.32
54 | GATGATTGTTCTCCCAGCTGATGAATTGGACACTTCGAGTAAACAAATTTTCCTAATCTTTCTGTTCAAGCGCCATCTAC | 0.402
55 | GATGATTGTTCTCCCAGCTGATGAATTCGGCACCTCGAGTAAACAAATTTTCCTAATCTTTCTGTTCAAGCGCCATCTAC | 1.03
56 | GATGATTGTTCTCCCAGCTGATGAATTGCTTCGGTCGAGTAAACAAATTTTCCTAATCTTTCTGTTCAAGCGCCATCTAC | 0.423
57 | GATGATTGTTCTCCCAGCTGATGAATTATCACGCTCGAGTAAACAAATTTTCCTAATCTTTCTGTTCAAGCGCCATCTAC | 0.436
58 | GATGATTGTTCTCCCAGCTGATGAATTAGTGTTATCGAGTAAACAAATTTTCCTAATCTTTCTGTTCAAGCGCCATCTAC | 2.5
59 | GATGATTGTTCTCCCAGCTGATGAATTATGGGGGTCGAGTAAACAAATTTTCCTAATCTTTCTGTTCAAGCGCCATCTAC | 0.512
60 | GATGATTGTTCTCCCAGCTGATGAATTAATATTTTCGAGTAAACAAATTTTCCTAATCTTTCTGTTCAAGCGCCATCTAC | 0.703
61 | GATGATTGTTCTCCCAGCTGATGAATTGTGACCCTCGAGTAAACAAATTTTCCTAATCTTTCTGTTCAAGCGCCATCTAC | 0.739
62 | GATGATTGTTCTCCCAGCTGATGAATTTGAGTGTTCGAGTAAACAAATTTTCCTAATCTTTCTGTTCAAGCGCCATCTAC | 1.53
63 | GATGATTGTTCTCCCAGCTGATGAATTCCTACGCTCGAGTAAACAAATTTTCCTAATCTTTCTGTTCAAGCGCCATCTAC | 0.235
